Measured values: paper PMC5515408
The list shows a part of the results. At the low end of the ranking the order means little.

Target: MAX:MAX (p21) (UniProt P61244-2)
Test: protein-binding microarray (anti-MAX antibody)
Details: PBM: 15 mM Tris-HCl pH 7.5, 100 mM KCl, 0.075% NP40, 7.5 mM beta-mercaptoethanol, 375 ng/ul BSA, 8 ng/ul poly(dA-dT):(dA-dT), 550 ng complex, 60 min, room …; high values mean tight binding; double strand, one strand shown; sequences stand for … in CCGGC…TTAATAGCTAAGATTACTATATCGACG

Row | Sequence | binding signal (log2 normalized fluorescence)
1 | TGAAGGGTAGTA | -0.817
2 | TGAACACTAGTA | -0.147
3 | TGACGAGTCGTA | -0.648
4 | TGATATGTAGTA | -0.885
5 | TGACCAACCGTA | -0.232
6 | TGATTGGTTGTA | -0.814
7 | TGAGCTTGAGTA | -0.795
8 | TGACACGTGGGT | 3.39
9 | TGAGCAGTGGTA | -0.514
10 | TGATATTTAGTA | -1.26
11 | TGACACGGTATA | 1.17
12 | TGACGTCTCGTA | -0.639
13 | TGACAGGTGCTG | 2.38
14 | CAAATGAGAGCC | -0.0499
15 | AGACACGCAGTA | 2.67
16 | TGAATCCTAGTA | -0.835
17 | TGAACTAAAGTA | -0.827
18 | AGATTTCGGACA | -0.526
19 | TGAAGCCACGTA | 0.619
20 | TGACACCTGGAA | 1.65
21 | TGAGTTGGAGTA | -1.05
22 | TGAAAGCTTGTA | -0.547

Row | Sequence | binding signal (log2 normalized fluorescence)
23 | TGAGGATAGGTA | -0.724
24 | TGAATTCCAGTA | -0.837
25 | TGAAGCTTTGTA | -0.703
26 | TGAAGGCAGGTA | -0.449
27 | TGAAACGCAGTA | -0.19
28 | TGATCTGCGGTA | -0.623
29 | TCACACGTGGTA | 3.33
30 | TGAGACGTGATA | 0.863
31 | TGAGTTCCGGTA | -1.06
32 | TGAGCTAACGTA | -0.965
33 | GGACTCGTGGTA | 3.3
34 | TGACCCCAAGTA | -0.188
35 | TGAAGCGTGTTA | 2.97
36 | TGACACTTCGTC | -0.311
37 | TGATGGGTGGTA | 0.522
38 | TGATAGAGTGTA | -0.76
39 | TGATTAAGTGTA | -0.71
40 | TGAACCTCGGTA | -0.351
41 | TGATGTGGTGTA | 0.281
42 | TGACACAATGTA | 0.834
43 | TGATACGTGTTG | 0.944
44 | TGACGGCTGGTA | -0.329

Row | Sequence | binding signal (log2 normalized fluorescence)
45 | TGAGGAAGGGTA | -0.319
46 | TGACTGGATGTA | -0.202
47 | TGATAAACAGTA | -0.726
48 | TGATAGCTTGTA | -0.931
49 | TGACAGTAAGTA | -0.0584
50 | TGACTCTGAGTA | -1.05
51 | TAGGTCAGAGCC | -1.32
52 | TGAGATGGCGTA | -0.529
53 | TGAGGTACCGTA | -0.177
54 | TGAAAGCCTGTA | -0.0129
55 | TGAAATGCGGTA | 0.988
56 | TGAACGGCAGTA | -0.447
57 | TGAGGGACTGTA | -0.287
58 | TGAGTAAAGGTA | -0.964
59 | TGACCGACAGTA | -0.69
60 | TGACCGCTGGTA | -0.203
61 | TGATATTGGGTA | -1.18
62 | TGAGTACCAGTA | -0.705
63 | TGAGAATGAGTA | -0.499
64 | TGAGCCCAGGTA | -0.848
65 | TGATTGTCTGTA | -0.83
66 | AAGTTTAAGCCG | -0.829

Row | Sequence | binding signal (log2 normalized fluorescence)
67 | TGATGCGGCGTA | -0.112
68 | GTACACGTGGTC | 3.35
69 | TGATAAACTGTA | -0.922
70 | TGACTCGGGGTA | 0.137
71 | TGAGGTTGGGTA | -0.698
72 | TGTCAGGTGCTA | 2.69
73 | TGAGGCCTGGTA | 0.158
74 | TGAACCCGTGTA | 1.7
75 | TGAGTGAACGTA | -0.316
76 | TTAAGCGTGGTA | 3
77 | TGATTAACAGTA | -0.841
78 | TGAGGATAAGTA | -0.954
79 | TGAAAAATAGTA | -1.16
80 | TGATGGGCTGTA | 0.354
81 | TGAATATATGTA | -0.974
82 | TGACGGTATGTA | -0.0601
83 | TGACAGCTTGTA | -0.208
84 | TGACCACGCGTA | 2.94
85 | GCTGGTAGCGCC | -0.949
86 | TTGTACGTGGTA | 1.39
87 | TGAAATAACGTA | -0.543
88 | TGAGTGCGAGTA | 0.137
